Assay results as given in PubChem BioAssay AID1768 (National Center for Advancing Translational Sciences (NCATS), 2009).
Out of some 270,000 compounds screened, about 620 (0.23%) were called active. Inconclusive means that the source gave no clear call. Such entries were picked first, then a sample of the others. Calls come from the whole dose curve; as a rule, active = well fitted inhibition curve with a large enough effect in the polarisation, with a control signal flat (not every such curve was filed as active); inconclusive = small, poorly fitted or top-dose-only effect, or effect the other way, or a change in a side signal; inactive = no such curve, though single readings can be large or run the other way; the % refers to the polarisation. Potencies beside an inconclusive call are fits to weak or partial responses and may not hold up. “Side channel” marks fits to a control or component signal instead of the main read-out.

Biological target: Menin (Homo sapiens) (UniProt O00255)
Chain of UniProt O00255 (O00255 whole entry, looked up): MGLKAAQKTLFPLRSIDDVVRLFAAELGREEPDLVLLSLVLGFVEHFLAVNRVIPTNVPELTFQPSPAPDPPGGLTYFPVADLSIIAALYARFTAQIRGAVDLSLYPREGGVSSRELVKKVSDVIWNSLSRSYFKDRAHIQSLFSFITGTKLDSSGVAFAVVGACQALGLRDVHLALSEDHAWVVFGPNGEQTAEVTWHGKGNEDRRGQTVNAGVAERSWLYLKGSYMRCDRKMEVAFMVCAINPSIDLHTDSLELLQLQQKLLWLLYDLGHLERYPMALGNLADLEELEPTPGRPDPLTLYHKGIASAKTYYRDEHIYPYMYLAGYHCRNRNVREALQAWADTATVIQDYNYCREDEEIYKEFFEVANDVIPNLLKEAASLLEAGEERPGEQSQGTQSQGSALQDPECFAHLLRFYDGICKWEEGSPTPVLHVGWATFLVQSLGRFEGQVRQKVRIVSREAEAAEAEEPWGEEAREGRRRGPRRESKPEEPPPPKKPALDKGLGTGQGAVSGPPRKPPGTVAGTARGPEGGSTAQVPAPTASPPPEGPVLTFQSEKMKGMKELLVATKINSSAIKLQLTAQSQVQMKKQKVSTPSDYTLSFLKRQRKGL
Assay: qHTS Assay for Inhibitors Targeting the Menin-MLL Interaction in MLL Related Leukemias: Competition With Texas Red Labeled MLL-derived Mutant Peptide; for FP activity change, negative = inhibition: % of control where 0% means no effect
Conditions: fluorescence polarization; FP activity change, negative = inhibition: at 61.6 µM (top of the series)
Potency is the fitted concentration of half-maximal effect; tags give direction and shape of the fitted curve or compound fluorescence and quenching.

Potency, inconclusive:
CCOC(=O)c1ccc(CN2Cc3ccccc3C2=O)cc1 25.1 µM [inhibitor, partial curve]
O=C(COC(=O)c1ccc(Oc2ccccc2)cc1)Nc1nnc(-c2ccccc2)o1 39.8 µM [quencher, side channel, single point]
CCOc1ccc(NC(=O)CCN2C(=O)c3ccccc3C2=O)cc1 35.5 µM [quencher, side channel, single point]
O=C(O)c1cccc(-n2c(/C=C/c3ccc([N+](=O)[O-])cc3)nc3ccccc3c2=O)c1 14.1 µM [quencher, side channel, partial curve]
C#CCOCCOCCOCCNc1nc(N2CCN(C(=O)[C@H]([C@@H](C)CC)n3cc([C@@H](N)CC(C)C)nn3)CC2)nc(N2CCN(C(=O)[C@H](CCCCN)n3cc([C@@H](N)C(C)CC)nn3)CC2)n1 (some centres undefined) 2.51 µM [fluorescent, side channel, full curve]
O=c1cc(-c2ccccc2)[nH]n1-c1ccc([N+](=O)[O-])cc1 2.82 µM [quencher, side channel, partial curve]
COc1ccccc1-c1nnc2sc(COc3ccc(Cl)cc3Cl)nn12 2.82 µM [inhibitor, partial curve]
CCCn1nc(NC(=O)c2cccs2)c2cc3ccccc3nc21 10 µM [quencher, side channel, partial curve]
Cc1ccc(/C=C/C(=O)O)cc1S(=O)(=O)NCc1ccco1 28.2 µM [inhibitor, partial curve]
c1ccc(-c2nnc(CN3CCN(C(c4ccccc4)c4ccccc4)CC3)o2)cc1 11.2 µM [fluorescent, side channel, partial curve]
Fc1ccc(COc2ccc(Br)cc2CNCC2CCCO2)cc1 (centres undefined) 7.94 µM [fluorescent, side channel, partial curve]
O=c1cc(CSc2nc3ccccc3c(=O)[nH]2)c2ccc(O)cc2o1 39.8 µM [quencher, side channel, single point]
Cc1ccc(NC(=O)C2C3C=CC4(O3)C2C(=O)N(CCN2CCOCC2)C4C(=O)NC2CCCCC2)cc1C (centres undefined) 35.5 µM [inhibitor, single point]
O=C(N/N=C1\C/C(=N\NC(=O)c2ccncc2)c2ccccc21)c1ccncc1 31.6 µM [quencher, side channel, partial curve]
COc1ccc(-c2nc(CS(=O)(=O)CC(=O)NCCCc3ccccc3)c(C)o2)cc1 44.7 µM [inhibitor, partial curve]
CS(=O)(=O)N1CCC(C(=O)NCCN2CCN(Cc3ccccc3)CC2)CC1 8.91 µM [inhibitor, single point]
COc1ccc(N2Nc3n[nH]c(N)c3N2)cc1 17.8 µM [quencher, side channel, single point]
O=C(Nc1ccc(S(=O)(=O)N2CCc3ccccc3C2)cc1)C1CCCO1 (centres undefined) 28.2 µM [quencher, side channel, single point]
O=C(NNC(=S)NC(=O)c1ccc(Br)cc1)c1ccc([N+](=O)[O-])cc1 35.5 µM [quencher, single point]
COc1cc(C)c(N(C(C)=O)c2ccccc2)c(C)c1 11.2 µM [inhibitor, partial curve]
Cc1cc(C)c(C)c(S(=O)(=O)N2CCC(C(=O)N3CCCCCCC3)CC2)c1C 3.98 µM [fluorescent, side channel, full curve]
Cc1cc(C)c(OCCOCCN2CCNCC2)c(C)c1 15.8 µM [fluorescent, side channel, partial curve]
CCN(CC(=O)NCc1ccncc1)S(=O)(=O)c1cc(Cl)ccc1Cl 39.8 µM [quencher, side channel, single point]
COc1ccc(OC)c(/C=C2\SC(=S)N(NS(=O)(=O)c3ccc(C)cc3)C2=O)c1 28.2 µM [quencher, single point]
O=c1cc(CSc2ccc(Cl)cc2)nc(-c2ccccn2)[nH]1 10 µM [inhibitor, partial curve]
CC1=NN(C(N)=S)C(=O)C1N=Nc1ccc(C)c(Br)c1 (centres undefined) 7.08 µM [quencher, side channel, partial curve]
COCCCC/C(=N\OCCN)c1ccc(C(F)(F)F)cc1 14.1 µM [fluorescent, side channel, partial curve]
O=C(NCc1ccc(Cl)cc1)c1cc2c(nc3sccn32)s1 20 µM [quencher, side channel, single point]
N=c1c2c(-c3ccccc3)c(-c3ccccc3)n(Cc3ccco3)c2ncn1CCCN1CCOCC1 10 µM [fluorescent, side channel, partial curve]
O=C1[C@H]2C(c3ccccc3)=NN(c3ccccc3)[C@H]2C(=O)N1c1ccccc1 25.1 µM [inhibitor, single point]
c1ccc(-c2cn3c(n2)SCC3)cc1 17.8 µM [inhibitor, partial curve]
Clc1ccccc1Nc1nc(-c2cccnc2)cs1 28.2 µM [quencher, side channel, single point]
COc1ccc(-c2cc(OC(=O)c3ccc(F)cc3)c3c(C)oc(C)c3c(=O)c2)cc1 14.1 µM [quencher, side channel, partial curve]
C[C@@H](C(=O)Nc1ccc2ccccc2c1)[C@@H]1C[C@@]1(C)[C@@H](NS(=O)(=O)c1ccccc1)c1ccccc1 39.8 µM [inhibitor, single point]
O=C(CSc1nc2ccccc2s1)N1c2ccccc2Sc2ccc(C(F)(F)F)cc21 39.8 µM [inhibitor, single point]
Cc1ccc2c(c1)C(c1ccccc1)N(C(=O)c1cccc([N+](=O)[O-])c1)CC(=O)N2 (centres undefined) 39.8 µM [quencher, side channel, single point]
Cc1ccc(-c2csc(NC(=O)C3=NN(c4ccccc4)C(=O)CC3)n2)cc1 8.91 µM [inhibitor, single point]
CCC(=O)Nc1ccc(OCc2nc3ccccc3s2)cc1 25.1 µM [quencher, side channel, single point]
Clc1ccc2[nH]c(-c3ccccc3)cc2c1 2.51 µM [quencher, side channel, full curve, poor fit]
COc1ccc(N2CCN(C(=S)NC(C)c3ccccc3)CC2)cc1 (centres undefined) 35.5 µM [quencher, side channel, single point]
CCOc1cc(C(=O)N2CCN(C/C=C/c3ccccc3)CC2)cc(OCC)c1OCC 3.55 µM [inhibitor, single point]
COC(CNc1ncnc2sc(-c3ccccc3)cc12)OC 22.4 µM [quencher, side channel, single point]
O=C(Nc1ccc2nn(-c3ccccc3)nc2c1)c1ccc2c(c1)OCCO2 14.1 µM [quencher, side channel, partial curve]
COc1ccc(NC(=O)C(=O)c2cn(CC(=O)N3CCCC3)c3ccccc23)c(OC)c1 25.1 µM [quencher, side channel, single point]
CN(/N=C/c1ccc([N+](=O)[O-])o1)c1ccccc1 28.2 µM [quencher, side channel, single point]
CCCOC(=O)c1ccc(NC(=O)Cc2cccs2)cc1 17.8 µM [quencher, side channel, single point]
COc1ccc(Oc2nccc(-c3ccccc3)c2C#N)cc1 39.8 µM [inhibitor, single point]
CN1CCN(CC(=O)Nc2ccc(OC(F)(F)F)cc2)CC1 39.8 µM [inhibitor, single point]
CCCn1nc2cc(C(=O)NC3CCCc4ccccc43)ccc2c1OCC (centres undefined) 31.6 µM [fluorescent, side channel, single point]

FP activity change, negative = inhibition, inactive:
S=C(NCCCN1CCOCC1)N1CCN(c2cccc(Cl)c2)CC1 -3.1%
COc1cc(OC)c2cc(-c3ccncc3)cnc2c1 -16.9% [at 24.8 µM]
CC(C)=CC(=O)Nc1ccccc1C(N)=O -1.36%
C=C(C)c1cccc(C(C)(C)NC(=O)Nc2ccc(OC)cc2)c1 -3.78%
CC(=O)Nc1ccc(NS(=O)(=O)c2ccc(Cl)s2)cc1 4.23%
OC(COC1CCCCC1)CN1CCN(c2ccccc2)CC1 (centres undefined) 15.1%
COC(=O)C[C@@H]1O[C@H]1[C@H](C)[C@@H](OC)C(C)C -4.44% [at 11.7 µM]
CCN(Cc1ccccc1)C1CCN(Cc2ccc(SC)cc2)CC1 -19.3%
Cn1c2c(c(=O)n(C)c1=O)C(c1ccccc1F)C(C#N)=C(N)O2 (centres undefined) -7.54%
Cc1cc(OCc2cn3cccnc3n2)ccc1Cl -13.4%
